The supplement of paper PMC8728848
Some of the results follow.

Assays:
Test in all cases: glycan array binding signal (z-score within array); higher = stronger binding
Details in all cases: glycan notation: IUPAC condensed, linker removed
[1] = molecular target: GlcNAc(b1-3)Gal(b1-4)GlcNAc(b1-3)Gal(b1-4)GlcNAc(b1-3)GalNAc
Outline: (§1)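 The binding signal is a Z-score computed within each array and averaged over linkers. Arrays of the same protein sequence at different concentrations or buffers were also averaged together. Data originate from 3228 arrays in the Consortium for Functional Glycomics database, kept only where the protein sequence was available.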

[2] = molecular target: GlcNAc(b1-3)Gal(b1-4)GlcNAc(b1-3)GalNAc
Outline: as §1

[3] = molecular target: GlcNAc(b1-3)Gal(b1-4)GlcNAc(b1-3)[GlcNAc(b1-3)Gal(b1-4)GlcNAc(b1-3)]GalNAc
Outline: as §1

[4] = molecular target: GlcNAc(b1-3)Gal(b1-4)GlcNAc(b1-6)[Gal(b1-3)]GalNAc
Outline: as §1

[5] = molecular target: GlcNAc(b1-3)Gal(b1-4)GlcNAc(b1-6)[GlcNAc(b1-3)Gal(b1-3)]GalNAc
Outline: as §1

[6] = molecular target: GlcNAc(b1-3)Gal(b1-4)GlcNAc(b1-6)[GlcNAc(b1-3)]Gal(b1-4)GlcNAc
Outline: as §1

[7] = molecular target: GlcNAc(b1-3)GalNAc
Outline: as §1

[8] = molecular target: GlcNAc(b1-3)Man
Outline: as §1

[9] = molecular target: GlcNAc(b1-3)[GlcNAc(b1-4)][GlcNAc(b1-6)]GlcNAc
Outline: as §1

[10] = molecular target: GlcNAc(b1-3)[GlcNAc(b1-6)]Gal(b1-4)GlcNAc
Outline: as §1

[11] = molecular target: GlcNAc(b1-3)[GlcNAc(b1-6)]GalNAc
Outline: as §1

[12] = molecular target: GlcNAc(b1-4)Gal(b1-4)GlcNAc
Outline: as §1

[13] = molecular target: GlcNAc(b1-4)GlcNAc
Outline: as §1

[14] = molecular target: GlcNAc(b1-4)GlcNAc(b1-4)GlcNAc
Outline: as §1

[15] = molecular target: GlcNAc(b1-4)GlcNAc(b1-4)GlcNAc(b1-4)GlcNAc(b1-4)GlcNAc
Outline: as §1

[16] = molecular target: GlcNAc(b1-4)GlcNAc(b1-4)GlcNAc(b1-4)GlcNAc(b1-4)GlcNAc(b1-4)GlcNAc
Outline: as §1

[17] = molecular target: GlcNAc(b1-4)[GlcNAc(b1-6)]GalNAc
Outline: as §1

[18] = molecular target: GlcNAc(b1-6)Gal(b1-4)GlcNAc
Outline: as §1

[19] = molecular target: GlcNAc(b1-6)GalNAc
Outline: as §1

[20] = molecular target: GlcNAc6S(b1-3)Gal(b1-4)GlcNAc
Outline: as §1

[21] = molecular target: Kdn(a2-3)Gal(b1-3)GalNAc
Outline: as §1

[22] = molecular target: Kdn(a2-3)Gal(b1-3)GlcNAc
Outline: as §1

[23] = molecular target: Kdn(a2-3)Gal(b1-4)Glc
Outline: as §1

[24] = molecular target: Kdn(a2-3)Gal(b1-4)GlcNAc
Outline: as §1

[25] = molecular target: Kdn(a2-3)Gal(b1-4)[Fuc(a1-3)]GlcNAc
Outline: as §1

[26] = molecular target: Kdn(a2-6)Gal(b1-4)GlcNAc
Outline: as §1

[27] = molecular target: Man(a1-2)Man(a1-2)Man(a1-3)Man
Outline: as §1

[28] = molecular target: Man(a1-2)Man(a1-2)Man(a1-6)[Man(a1-3)]Man
Outline: as §1

[29] = molecular target: Man(a1-2)Man(a1-3)Man
Outline: as §1

[30] = molecular target: Man(a1-2)Man(a1-3)[Man(a1-2)Man(a1-6)]Man
Outline: as §1

[31] = molecular target: Man(a1-2)Man(a1-3)[Man(a1-2)Man(a1-6)]Man(a1-6)[Man(a1-2)Man(a1-2)Man(a1-3)]Man
Outline: as §1

[32] = molecular target: Man(a1-2)Man(a1-3)[Man(a1-2)Man(a1-6)]Man(a1-6)[Man(a1-2)Man(a1-2)Man(a1-3)]Man(b1-4)GlcNAc(b1-4)GlcNAc
Outline: as §1

[33] = molecular target: Man(a1-2)Man(a1-3)[Man(a1-6)]Man(a1-6)[Man(a1-2)Man(a1-3)]Man(b1-4)GlcNAc(b1-4)GlcNAc
Outline: as §1

[34] = molecular target: Man(a1-2)Man(a1-6)[Man(a1-3)]Man(a1-6)[Man(a1-2)Man(a1-2)Man(a1-3)]Man
Outline: as §1

[35] = molecular target: Man(a1-2)Man(a1-6)[Man(a1-3)]Man(a1-6)[Man(a1-2)Man(a1-2)Man(a1-3)]Man(b1-4)GlcNAc(b1-4)GlcNAc
Outline: as §1

[36] = molecular target: Man(a1-3)[Man(a1-6)]Man
Outline: as §1

[37] = molecular target: Man(a1-3)[Man(a1-6)]Man(a1-6)[Man(a1-2)Man(a1-3)]Man(b1-4)GlcNAc(b1-4)GlcNAc
Outline: as §1

[38] = molecular target: Man(a1-3)[Man(a1-6)]Man(a1-6)[Man(a1-3)]Man
Outline: as §1

[39] = molecular target: Man(a1-3)[Man(a1-6)]Man(a1-6)[Man(a1-3)]Man(b1-4)GlcNAc(b1-4)GlcNAc
Outline: as §1

[40] = molecular target: Man(a1-3)[Man(a1-6)]Man(b1-4)GlcNAc(b1-4)GlcNAc
Outline: as §1

[41] = molecular target: Man(a1-3)[Man(a1-6)]Man(b1-4)GlcNAc(b1-4)[Fuc(a1-6)]GlcNAc
Outline: as §1

[42] = molecular target: Man(a1-6)Man
Outline: as §1

[43] = molecular target: Man(b1-4)GlcNAc
Outline: as §1

[44] = molecular target: MurNAc(b1-4)GlcNAc
Outline: as §1

[45] = molecular target: Neu5Ac(a2-3)Gal
Outline: as §1

[46] = molecular target: Neu5Ac(a2-3)Gal(b1-3)GalNAc
Outline: as §1

[47] = molecular target: Neu5Ac(a2-3)Gal(b1-3)GalNAc(b1-3)Gal(a1-4)Gal(b1-4)Glc
Outline: as §1

[48] = molecular target: Neu5Ac(a2-3)Gal(b1-3)GalNAc(b1-4)Gal(b1-4)Glc
Outline: as §1

[49] = molecular target: Neu5Ac(a2-3)Gal(b1-3)GalNAc(b1-4)[Neu5Ac(a2-3)]Gal(b1-4)Glc
Outline: as §1

[50] = molecular target: Neu5Ac(a2-3)Gal(b1-3)GalNAc(b1-4)[Neu5Ac(a2-8)Neu5Ac(a2-3)]Gal(b1-4)Glc
Outline: as §1

[51] = molecular target: Neu5Ac(a2-3)Gal(b1-3)GalNAc6S
Outline: as §1

[52] = molecular target: Neu5Ac(a2-3)Gal(b1-3)GlcNAc
Outline: as §1

[53] = molecular target: Neu5Ac(a2-3)Gal(b1-3)GlcNAc(b1-2)Man
Outline: as §1

[54] = molecular target: Neu5Ac(a2-3)Gal(b1-3)GlcNAc(b1-2)Man(a1-3)[GlcNAc(b1-4)][Neu5Ac(a2-3)Gal(b1-3)GlcNAc(b1-2)Man(a1-6)]Man(b1-4)GlcNAc(b1-4)GlcNAc
Outline: as §1

[55] = molecular target: Neu5Ac(a2-3)Gal(b1-3)GlcNAc(b1-2)Man(a1-3)[Neu5Ac(a2-3)Gal(b1-3)GlcNAc(b1-2)Man(a1-6)]Man(b1-4)GlcNAc(b1-4)GlcNAc
Outline: as §1

[56] = molecular target: Neu5Ac(a2-3)Gal(b1-3)GlcNAc(b1-2)[Neu5Ac(a2-3)Gal(b1-3)GlcNAc(b1-4)]Man(a1-6)[Neu5Ac(a2-3)Gal(b1-3)GlcNAc(b1-2)Man(a1-3)]Man(b1-4)GlcNAc(b1-4)GlcNAc
Outline: as §1

[57] = molecular target: Neu5Ac(a2-3)Gal(b1-3)GlcNAc(b1-3)Gal(b1-3)GlcNAc
Outline: as §1

[58] = molecular target: Neu5Ac(a2-3)Gal(b1-3)GlcNAc(b1-3)Gal(b1-4)GlcNAc
Outline: as §1

[59] = molecular target: Neu5Ac(a2-3)Gal(b1-3)GlcNAc(b1-3)GalNAc
Outline: as §1

[60] = molecular target: Neu5Ac(a2-3)Gal(b1-3)GlcNAc(b1-6)GalNAc
Outline: as §1

B1: Pa IMPa (Pseudomonas aeruginosa), Q9I5W4 (protein)
chain: MSLSTTAFPSLQGENMSRSPIPRHRALLAGFCLAGALSAQAATQEEILDAALVSGDSSQLTDSHLVALRLQQQVERIRQTRTQLLDGLYQNLSQAYDPGAASMWVLPANPDNTLPFLIGDKGRVLASLSLEAGGRGLAYGTNVLTQLSGTNAAHAPLLKRAVQWLVNGDPGAATAKDFKVSVVGVDKTAALNGLKSAGLQPADAACNALTDASCASTSKLLVLGNGASAASLSATVRARLQAGLPILFVHTNGWNQSSTGQQILAGLGLQEGPYGGNYWDKDRVPSSRTRTRSVELGGAYGQDPALVQQIVDGSWRTDYDWSKCTSYVGRTTCDDVPGLSDFSKRVDVLKGALDAYNQKAQNLFALPGTTSLRLWLLWADAVRQNIRYPMDKAADTARFQETFVADAIVGYVREAGAAQKELGSYAGQRQQSMPVSGSEETLTLTLPSAQGFTAIGRMAAPGKRLSIRIEDAGQASLAVGLNTQRIGSTRLWNTRQYDRPRFLKSPDIKLQANQSVALVSPYGGLLQLVYSGATPGQTVTVKVTGAASQPFLDIQPGEDSSQAIADFIQALDADKADWLEIRSGSVEVHAKVEKVRGSIDKDYGGDVQRFIRELNEVFIDDAYTLAGFAIPNQAKTPAIQQECAARGWDCDSETLHKLPGTQHINVDQYAQCGGGCSGNPYDQTWGLNPRGWGESHELGHNLQVNRLKVYGGRSGEISNQIFPLHKDWRVLREFGQNLDDTRVNYRNAYNLIVAGRAEADPLAGVYKRLWEDPGTYALNGERMAFYTQWVHYWADLKNDPLQGWDIWTLLYLHQRQVDKSDWDANKAALGYGTYAQRPGNSGDASSTDGNDNLLLGLSWLTQRDQRPTFALWGIRTSAAAQAQVAAYGFAEQPAFFYANNRTNEYSTVKLLDMSQGSPAWPFP
In the case of B1, the “glycan array binding signal (z-score)” value [1] is reported as -0.44, the “glycan array binding signal (z-score)” value [2] is reported as 0.057 and the “glycan array binding signal (z-score)” value [3] is reported as 17.5. The “glycan array binding signal (z-score)” value [4] was -0.146, the “glycan array binding signal (z-score)” value [5] was 0.366 and the “glycan array binding signal (z-score)” value [6] was -0.386. For the same binder, the “glycan array binding signal (z-score)” value [7] was -0.21, the “glycan array binding signal (z-score)” value [8] was -0.076 and the “glycan array binding signal (z-score)” value [9] was -0.444. For the same binder, the “glycan array binding signal (z-score)” value [10] was 0.874, the “glycan array binding signal (z-score)” value [11] was -0.365 and the “glycan array binding signal (z-score)” value [12] was -0.196. For the same binder, the “glycan array binding signal (z-score)” value [13] was 0.044, the “glycan array binding signal (z-score)” value [14] was -0.238 and the “glycan array binding signal (z-score)” value [15] was -0.309. For the same binder, the “glycan array binding signal (z-score)” value [16] was -0.284, the “glycan array binding signal (z-score)” value [17] was -0.256 and the “glycan array binding signal (z-score)” value [18] was -0.185. For the same binder, the “glycan array binding signal (z-score)” value [19] was -0.516, the “glycan array binding signal (z-score)” value [20] was 0.718 and the “glycan array binding signal (z-score)” value [21] was 0.647. For the same binder, the “glycan array binding signal (z-score)” value [22] was -0.49, the “glycan array binding signal (z-score)” value [23] was -0.129 and the “glycan array binding signal (z-score)” value [24] was -0.467. The “glycan array binding signal (z-score)” value [25] was -0.249, the “glycan array binding signal (z-score)” value [26] was -0.243 and the “glycan array binding signal (z-score)” value [27] was -0.474. The “glycan array binding signal (z-score)” value [28] was -0.142, the “glycan array binding signal (z-score)” value [29] was -0.432 and the “glycan array binding signal (z-score)” value [30] was -0.128. For the same binder, the “glycan array binding signal (z-score)” value [31] was -0.403, the “glycan array binding signal (z-score)” value [32] was -0.465 and the “glycan array binding signal (z-score)” value [33] was -0.157. For the same binder, the “glycan array binding signal (z-score)” value [34] was -0.309, the “glycan array binding signal (z-score)” value [35] was -0.415 and the “glycan array binding signal (z-score)” value [36] was 0.005. The “glycan array binding signal (z-score)” value [37] was 0.094, the “glycan array binding signal (z-score)” value [38] was -0.432 and the “glycan array binding signal (z-score)” value [39] was 0.57. For the same binder, the “glycan array binding signal (z-score)” value [40] was -0.124, the “glycan array binding signal (z-score)” value [41] was 0.916 and the “glycan array binding signal (z-score)” value [42] was -0.125. For the same binder, the “glycan array binding signal (z-score)” value [43] was -0.16, the “glycan array binding signal (z-score)” value [44] was 0.11 and the “glycan array binding signal (z-score)” value [45] was -0.049. The “glycan array binding signal (z-score)” value [46] was 0.09, the “glycan array binding signal (z-score)” value [47] was -0.06 and the “glycan array binding signal (z-score)” value [48] was -0.437. For the same binder, the “glycan array binding signal (z-score)” value [49] was 1.23, the “glycan array binding signal (z-score)” value [50] was 0.025 and the “glycan array binding signal (z-score)” value [51] was -0.297. The “glycan array binding signal (z-score)” value [52] was -0.313, the “glycan array binding signal (z-score)” value [53] was -0.547 and the “glycan array binding signal (z-score)” value [54] was 0.857. The “glycan array binding signal (z-score)” value [55] was -0.398, the “glycan array binding signal (z-score)” value [56] was 0.553 and the “glycan array binding signal (z-score)” value [57] was -0.386. For the same binder, the “glycan array binding signal (z-score)” value [58] was 0.474, the “glycan array binding signal (z-score)” value [59] was 0.273 and the “glycan array binding signal (z-score)” value [60] was -0.218.
